Test results published in patent publication US20230331822A1 (published 2023).

B1: COV2-124-20-Fc (Fc fusion)
chain: QLQLVESGGDLVQPGESLRLSCVASGRTFSSYAIGWFRQAPGKEREGVSCISSGGITSYADSVRGRFTISRENAKNAVYLEMNSLKPEDTAVYYCAANRGRFTGWRSLTDYTYWGQGTQVTVSS[human IgG1 Fc with changes not listed]
B2: COV2-32-26-Fc (Fc fusion)
chain: QLQLVESGGDLVQPGESLRLSCVASGRTFGTYRIGWFRQAPGKEREGVSCIFWSGGGASYADSVRGRFTISRENAKNAVYLEMNSLKPEDTAVYYCAARAPTTQEYDYWGQGTQVTVSS[human IgG1 Fc with changes not listed]
B3: COV2-143-4-Fc (Fc fusion)
chain: QLQLVESGGDLVQPGESLRLSCVASGLTLNNNTIGWFRQAPGKEREGVSCISPSGIVTSYADSVRGRFTISRENAKNAVYLEMNSLKPEDTAVYYCAVLQWNGAGLPSPLGSWGQGTQVTVSS[human IgG1 Fc with changes not listed]
B4: COV2-360-3-Fc (Fc fusion)
chain: QLQLVESGGDLVQPGESLRLSCVASGFTLDSYAIGWFRQAPGKEREGVSCITKHGGTTSYADSVRGRFTISRENAKNAVYLEMNSLKPEDTAVYYCAADHRALRFGCAVVPGPYDYWGQGTQVTVSS[human IgG1 Fc with changes not listed]
B5: COV2-116-9-Fc (Fc fusion)
chain: QLQLVESGGDLVQPGESLRLSCVASGFTLDYYAIGWFRQAPGKEREGVSCISSSGTSTSYADSVRGRFTISRENAKNAVYLEMNSLKPEDTAVYYCAALQGSYYYTSLHQTEYDYWGQGTQVTVSS[human IgG1 Fc with changes not listed]
B6: COV2-187-2-Fc (Fc fusion)
chain: QLQLVESGGDLVQPGESLRLSCVASGLSLEHYAIGWFRQAPGKEREGVSCIDSSGGSTSYADSVRGRFTISRENAKNAVYLEMNSLKPEDTAVYYCAALQGSYYYTSLHQTEYDYWGQGTQVTVSS[human IgG1 Fc with changes not listed]
B7: COV2-171-11-Fc (Fc fusion)
chain: QLQLVESGGDLVQPGESLRLSCVASGFTLDYYAIGWFRQAPGKEREGVSCISPSGTSTSYADSVRGRFTISRENAKNAVYLEMNSLKPEDTAVYYCAAANPSYYYCSGYPHEYDDWGQGTQVTVSS[human IgG1 Fc with changes not listed]
B8: COV2-120-17-Fc (Fc fusion)
chain: QLQLVESGGDLVQPGESLRLSCVASGHTGSTYIIGWFRQAPGKEREGVSCISRSGILRSYADSVRGRFTISRENAKNAVYLEMNSLKPEDTAVYYCAARDSLTGVIGNTPGEYDYWGQGTQVTVSS[human IgG1 Fc with changes not listed]
B9: COV2-18-21-Fc (Fc fusion)
chain: QLQLVESGGDLVQPGESLRLSCVASGRTFSTYAIGWFRQAPGKEREGVSCISPSRIITSYADSVRGRFTISRENAKNAVYLEMNSLKPEDTAVYYCAADSSYGGRLGRRIDDYEYWGQGTQVTVSS[human IgG1 Fc with changes not listed]
B10: COV2-331-25-Fc (Fc fusion)
chain: QLQLVESGGDLVQPGESLRLSCVASGFTFSSYAIGWFRQAPGKEREGVSCLDVTGRSTSYADSVRGRFTISRENAKNAVYLEMNSLKPEDTAVYYCAAVYTPFRFAFKTDPDRQDHWGQGTQVTVSS[human IgG1 Fc with changes not listed]
B11: COV2-153-18-Fc (Fc fusion)
chain: QLQLVESGGDLVQPGESLRLSCVASGRTVSSYVIGWFRQAPGKEREGVSCISRSGIITSYADSVRGRFTISRENAKNAVYLEMNSLKPEDTAVYYCAAAQTQVLPTEDRSYDYWGQGTQVTVSS[human IgG1 Fc with changes not listed]
B12: COV2-214-24-Fc (Fc fusion)
chain: QLQLVESGGDLVQPGESLRLSCVASGRTVSMYAIGWFRQAPGKEREGVSCISRSGRSTSYADSVRGRFTISRENAKNAVYLEMNSLKPEDTAVYYCAARDGGLHYALYVEASHYNYWGQGTQVTVSS[human IgG1 Fc with changes not listed]
B13: COV2-151-23-Fc (Fc fusion)
chain: QLQLVESGGDLVQPGESLRLSCVASASGRTSSTIGWFRQAPGKEREGVSCITWSGGSTSYADSVRGRFTISRENAKNAVYLEMNSLKPEDTAVYYCAAGLSPLMLTASRRYEYWGQGTQVTVSS[human IgG1 Fc with changes not listed]
B14: COV2-114-1-Fc (Fc fusion)
chain: QLQLVESGGDLVQPGESLRLSCVASGLSLEHYAIGWFRQAPGKEREGVSCISDSGATRSYADSVRGRFTISRENAKNAVYLEMNSLKPEDTAVYYCSATPGAFRTCAFRDFSHLANWGQGTQVTVSS[human IgG1 Fc with changes not listed]
B15: COV2-39-19-Fc (Fc fusion)
chain: QLQLVESGGDLVQPGESLRLSCVASGRTFTRYPIGWFRQAPGKEREGVSCISGSGIITSYADSVRGRFTISRENAKNAVYLEMNSLKPEDTAVYYCAVDNAPTSSLPLTPGEYDYWGQGTQVTVSS[human IgG1 Fc with changes not listed]

Key:
[1] = target: T1, HCoV-229E Spike protein, full length, C-terminally fused with EGFP (HCoV-229E, UniProt P15423 16-1173); experiment: flow cytometry, HEK293 cells expressing full-length Spike-EGFP, anti-hIg-PE
T1 construct: whole, on cells
T1 sequence: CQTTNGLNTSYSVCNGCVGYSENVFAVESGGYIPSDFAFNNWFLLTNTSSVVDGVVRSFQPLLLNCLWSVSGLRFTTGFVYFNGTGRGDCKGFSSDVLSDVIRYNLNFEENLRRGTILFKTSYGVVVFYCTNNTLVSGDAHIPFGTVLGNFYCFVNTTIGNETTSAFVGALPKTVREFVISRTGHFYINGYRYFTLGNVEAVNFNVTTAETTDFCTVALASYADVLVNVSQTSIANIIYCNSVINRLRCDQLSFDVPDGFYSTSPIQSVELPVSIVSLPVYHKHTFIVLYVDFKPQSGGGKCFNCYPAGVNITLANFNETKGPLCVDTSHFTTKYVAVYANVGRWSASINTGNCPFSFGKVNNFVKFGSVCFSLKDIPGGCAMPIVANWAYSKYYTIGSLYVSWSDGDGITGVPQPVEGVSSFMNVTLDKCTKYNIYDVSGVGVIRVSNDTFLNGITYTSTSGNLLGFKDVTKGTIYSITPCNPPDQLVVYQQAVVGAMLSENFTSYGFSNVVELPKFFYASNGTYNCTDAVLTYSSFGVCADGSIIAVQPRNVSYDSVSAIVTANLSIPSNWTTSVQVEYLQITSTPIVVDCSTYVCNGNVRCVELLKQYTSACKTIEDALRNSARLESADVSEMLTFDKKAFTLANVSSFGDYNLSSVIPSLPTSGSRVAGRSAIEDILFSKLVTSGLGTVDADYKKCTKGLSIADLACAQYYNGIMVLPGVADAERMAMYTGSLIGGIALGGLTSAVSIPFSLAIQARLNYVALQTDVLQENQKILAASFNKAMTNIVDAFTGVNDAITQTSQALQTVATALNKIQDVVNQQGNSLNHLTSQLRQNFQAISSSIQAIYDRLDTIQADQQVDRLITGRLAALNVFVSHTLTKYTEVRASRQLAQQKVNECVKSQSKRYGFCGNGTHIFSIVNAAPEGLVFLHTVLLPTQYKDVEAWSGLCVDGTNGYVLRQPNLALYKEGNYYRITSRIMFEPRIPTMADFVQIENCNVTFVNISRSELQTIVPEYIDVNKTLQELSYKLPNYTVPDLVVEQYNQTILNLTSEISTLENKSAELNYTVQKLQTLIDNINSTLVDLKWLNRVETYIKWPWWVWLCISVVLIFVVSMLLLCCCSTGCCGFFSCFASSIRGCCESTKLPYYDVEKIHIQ

[2] = target: T2, HCoV-HKU1 Spike protein, full length, C-terminally fused with EGFP (HCoV-HKU1, UniProt Q5MQD0 13-1356); experiment: as above
T2 construct: whole, on cells
T2 sequence: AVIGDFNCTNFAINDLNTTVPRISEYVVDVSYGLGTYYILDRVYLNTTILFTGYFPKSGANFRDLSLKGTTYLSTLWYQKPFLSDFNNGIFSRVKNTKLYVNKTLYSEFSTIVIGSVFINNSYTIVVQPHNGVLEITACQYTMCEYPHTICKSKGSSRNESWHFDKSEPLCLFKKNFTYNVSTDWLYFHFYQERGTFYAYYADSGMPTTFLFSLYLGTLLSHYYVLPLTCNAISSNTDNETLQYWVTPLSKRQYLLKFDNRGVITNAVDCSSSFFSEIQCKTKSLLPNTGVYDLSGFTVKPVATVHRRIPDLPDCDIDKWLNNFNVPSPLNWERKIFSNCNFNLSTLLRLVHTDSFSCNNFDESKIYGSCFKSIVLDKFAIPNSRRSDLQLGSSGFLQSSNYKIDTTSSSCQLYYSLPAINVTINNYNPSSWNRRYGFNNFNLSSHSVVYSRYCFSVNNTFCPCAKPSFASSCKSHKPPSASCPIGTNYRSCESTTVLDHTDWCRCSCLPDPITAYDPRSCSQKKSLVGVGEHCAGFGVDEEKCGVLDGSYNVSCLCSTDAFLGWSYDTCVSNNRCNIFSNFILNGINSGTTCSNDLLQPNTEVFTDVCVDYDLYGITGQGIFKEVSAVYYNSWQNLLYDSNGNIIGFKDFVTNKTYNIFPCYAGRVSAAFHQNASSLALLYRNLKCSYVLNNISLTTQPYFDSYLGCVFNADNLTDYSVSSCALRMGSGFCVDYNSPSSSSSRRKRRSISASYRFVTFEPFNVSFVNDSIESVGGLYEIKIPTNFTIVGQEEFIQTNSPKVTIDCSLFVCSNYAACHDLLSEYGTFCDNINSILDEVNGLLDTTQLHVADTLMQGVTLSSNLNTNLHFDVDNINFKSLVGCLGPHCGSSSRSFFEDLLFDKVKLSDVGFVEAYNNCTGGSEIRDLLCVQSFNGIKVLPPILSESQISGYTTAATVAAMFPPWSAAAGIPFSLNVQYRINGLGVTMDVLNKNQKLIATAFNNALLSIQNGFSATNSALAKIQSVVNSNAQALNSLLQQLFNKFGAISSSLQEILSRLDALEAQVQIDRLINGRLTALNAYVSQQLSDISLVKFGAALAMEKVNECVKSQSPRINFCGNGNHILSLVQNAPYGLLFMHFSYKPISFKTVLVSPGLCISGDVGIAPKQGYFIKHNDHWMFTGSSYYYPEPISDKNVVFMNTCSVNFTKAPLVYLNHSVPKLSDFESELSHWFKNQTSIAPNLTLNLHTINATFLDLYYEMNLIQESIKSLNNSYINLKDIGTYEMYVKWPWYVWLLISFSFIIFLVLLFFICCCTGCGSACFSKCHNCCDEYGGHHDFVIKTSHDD

Binder | binding result [1] | binding result [2]
B1 | no binding | no binding
B2 | no binding | no binding
B3 | no binding | no binding
B4 | no binding | no binding
B5 | no binding | no binding
B6 | no binding | no binding
B7 | no binding | no binding
B8 | no binding | no binding
B9 | no binding | no binding
B10 | no binding | no binding
B11 | no binding | no binding
B12 | no binding | no binding
B13 | no binding | no binding
B14 | no binding | no binding
B15 | no binding | no binding
